The campaign covered roughly 50,000 compounds. About 800 (1.6%) showed an effect of 50% or more. The list shows a part of the results.

In the assay the target is Bcl-2-like protein 10 (Homo sapiens) (UniProt Q9HD36). The experiment in a line: TR3 peptide-Bcl-B binding displacers, biochemical primary FP assay, phenotype converters (AID 1240).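 Note: 0% = Bcl-B with tracer peptide and DMSO and 100% = tracer peptide lacking Bcl-B.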 Particulars: GST-Bcl-B / FITC-TR3 peptide fluorescence polarization; stronger effect = higher value; compound at 3.75 mg/L. (In fluorescence polarisation assays a small probe gives low polarisation when free and higher when bound to something large.)
UniProt Q9HD36, sequence (Q9HD36 whole entry, looked up): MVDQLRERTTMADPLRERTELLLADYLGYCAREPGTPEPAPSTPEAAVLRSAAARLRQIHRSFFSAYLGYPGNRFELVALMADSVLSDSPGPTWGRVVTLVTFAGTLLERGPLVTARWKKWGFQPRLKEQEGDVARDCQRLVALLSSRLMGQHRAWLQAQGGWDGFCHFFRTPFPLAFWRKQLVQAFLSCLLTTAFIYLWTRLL
For `S=c1[nH]nc(-c2ccccc2)n1Cc1ccccc1`, the displacement is -6.7%.
For the compound `COc1ccc(/C=N/n2c(C)nnc2C)cc1`, the displacement was -8.8%.
With `O=C(c1cc2ncc(Br)cn2n1)N1CCCCC1`, the displacement was -10.7%.
Regarding `C=CCN1C(=O)/C(=C\c2cc3c(cc2Br)OCO3)SC1=S`, the displacement stood at 2.1%.
Regarding `CC(C)(C)NC(=O)CSc1nc(O)cc(=O)n1-c1ccccc1`, the displacement was -8.4%.
For the compound `COc1cc(/C=C2\C(=O)NC(=O)N(c3cc(C)cc(C)c3)C2=O)cc(Cl)c1OC`, the displacement was -7.8%.
For the compound `CC1=C(C(=O)OC(C)C)C(c2ccccc2Br)CC(=O)N1` (stereo not given), the displacement was -5.3%.
For the compound `O=C(O)CCNC(=O)COc1ccccc1`, the displacement stood at 8.3%.
Regarding `COc1ccc(Cl)cc1NC(=O)c1ccc([N+](=O)[O-])cc1`, the displacement is 15.5%.
As to `CC(=O)NC12CC3CC(C1)C(=O)C(C3)C2`, the displacement was -10%.
For `O=C1NN(c2ccccc2)C(=O)/C1=C/c1ccc(-c2ccc(F)cc2)o1`, the displacement is 8.1%.
Next, `O=C1NC(=S)NC(=O)C1=Cc1ccccc1OCCOc1ccccc1`: 14.3%.
On to `Cc1c(NC(=S)NC(=O)c2ccco2)cccc1-c1nc2ccccc2s1`, for which the displacement stood at 11%.
With `N#C/C(=C\Nc1ccc(S(=O)(=O)Nc2nccs2)cc1)c1nc(-c2ccc(Cl)cc2)cs1`, the displacement was -6.7%.
For the compound `COCCOC(=O)c1ccc(NC(=O)c2c(-c3ccccc3Cl)noc2C)cc1`, the displacement is -5.1%.
In the case of `CCN(CC)CCSc1nc(O)c(-c2ccccc2)c(=O)n1-c1ccccc1`, the displacement is -9.6%.
As to `COc1cc(C(=O)NC(NC(=S)Nc2ccc(Br)cc2)C(Cl)(Cl)Cl)cc(OC)c1OC` (stereo not given), the displacement is 13.8%.
As to `CC1=NN(C(=O)c2cccc(Cl)c2)C(O)(c2ccc(Cl)cc2)C1` (stereo not given), the displacement stood at 10%.
As to `O=C1C(C=NCc2ccc3c(c2)OCO3)=C(O)c2ccccc21`, the displacement is 134%.
With `Cc1ccc(OCCCCCCn2ccnc2)c(C)c1`, the displacement was -11.6%.
Consider `COc1ccc(/C=C/C(=O)N(C(C)C)C(C)C)cc1Br`, for which the displacement was determined as 10.4%.
With `CC(C)CCNC(=O)c1ccc([N+](=O)[O-])cc1Cl`, the displacement is 8.5%.
`CCn1c2ccccc2c2cc(NC(=O)c3ccc(C)c([N+](=O)[O-])c3)ccc21`: the displacement stood at 1%.
As to `CC(C)C(=O)N1c2ccccc2NC2=C(C(=O)CC(c3ccccc3)C2)C1c1ccco1` (stereo not given), the displacement was -15.4%.
For the compound `CC1(C)Cc2c(sc3ncnc(NCc4ccccc4)c23)CO1`, the displacement was -5.4%.
For the compound `O=C(NCc1ccco1)c1cnn2c(C(F)(F)F)cc(-c3ccccc3)nc12`, the displacement was -12.1%.
Consider `Cc1ccc(C=Nc2ccc(F)cc2)o1`, for which the displacement is 4.1%.
With `CCOC(=O)CSc1nc2c(c(=O)n(C)c(=O)n2C)n1C`, the displacement was found to be 17.9%.
With `O=C(NC(NC(=S)Nc1ccc(-c2ccccc2)cc1)C(Cl)(Cl)Cl)c1ccccc1Cl` (stereo not given), the displacement was determined as 8%.
`O=C(Nc1ccc(-c2nc3ncccc3o2)cc1)c1cccc(OCc2ccccc2)c1`: the displacement came to 110%.
As to `CCN(CC)S(=O)(=O)c1ccc(Cl)c(C(=O)Nc2ccccc2C(=O)O)c1`, the displacement was -8.1%.
With `COc1cc(C(=O)N/N=C/c2c[nH]c3ccccc23)ccc1O`, the displacement was found to be 5.3%.
Next, `CCOC(=O)c1c(NC(=O)c2ccc(F)cc2)sc(C(=O)Nc2cc(C(F)(F)F)ccc2Cl)c1C`: 13.6%; `CC1=C(C(=O)Nc2ccccc2C)C(c2ccc(F)cc2)NC(=S)N1` (stereo not given): -3.3%; `O=C(Oc1ccc([N+](=O)[O-])cc1)c1ccc(Br)c(S(=O)(=O)N2CCCCC2)c1`: -10.9%.
In the case of `COc1ccc(/C=C/C(=O)n2cc(C)nc2C)cc1OC`, the displacement was -5.3%.
For `Cn1c(=O)c2c(nc(Oc3cccc(C4Nc5ccc6ccccc6c5C5=C4C(=O)CC(C)(C)C5)c3)n2C)n(C)c1=O` (stereo not given), the displacement is -4.2%.
On to `COCCNCCOc1cccc(Cl)c1Cl`, for which the displacement turned out to be 2.3%.
Consider `O=C(Nc1ccccc1C#Cc1ccccc1)c1ccco1`, for which the displacement was 2.6%.
The same measure for `CCOC(=O)c1c(N)n(CCO)c2nc3ccccc3nc12`: 18.6%.
Regarding `Cc1cc(C)cc(NS(=O)(=O)c2ccc3ccccc3c2)c1`, the displacement turned out to be 4.5%.
Turning to `COc1ccc(CN2CCN(C(=O)c3ccc(F)cc3)CC2)cc1Br`, the displacement turned out to be 8.4%.
Take `Cc1c(NC(=O)c2ccc(-c3ccc([N+](=O)[O-])cc3)o2)cccc1-c1nc2ncccc2o1`: the displacement was found to be 22.9%.
For the compound `O=C1C(=O)N(c2cccc(Cl)c2)C(c2ccccc2F)/C1=C(\O)c1ccccc1` (stereo not given), the displacement is -2.9%.
On to `CCOC(=O)c1c(NC(=O)c2c(C(=O)O)cccc2[N+](=O)[O-])sc(C)c1C`, for which the displacement came out at 9%.
For `C/C(=N\N1CCN(Cc2cccc3ccccc23)CC1)c1cccnc1`, the displacement was -2.2%.
With `Cc1cc2nc(-c3cc(N)ccc3Cl)oc2cc1C`, the displacement was -2.2%.
In the case of `CCN1C(=O)/C(=C/c2c(N3CCN(C)CC3)nc3ccccn3c2=O)SC1=S`, the displacement is -115%.
As for `CC1CCOP(=O)(C(Nc2ccc(C(C)C)cc2)c2ccc(Br)cc2)O1` (stereo not given), the displacement was -7.4%.
As to `O=C(Nc1nc2ccc([N+](=O)[O-])cc2s1)c1cccc(Oc2ccccc2)c1`, the displacement was determined as 14.7%.
Regarding `COc1ccccc1C(=O)N1CCN(C(=O)c2ccc([N+](=O)[O-])cc2)CC1`, the displacement was found to be 16.8%.
For the compound `CCC(=O)N1c2ccccc2NC2=C(C(=O)CC(c3ccco3)C2)C1c1ccco1` (stereo not given), the displacement is -10%.
Turning to `Cc1ccc(-c2nn(-c3ccccc3)cc2/C=C2\SC(N)=NC2=O)cc1`, the displacement came out at 9.3%.
As for `CC1CCc2c(sc3nc(-c4ccco4)oc(=O)c23)C1` (stereo not given), the displacement was 0.3%.
Turning to `O=C(NN1C(=O)/C(=C/c2c(Cl)cccc2Cl)SC1=S)c1ccncc1`, the displacement turned out to be 6.2%.
Next, `COc1ccc(N=C2NC(=O)/C(=C/c3ccc(Cl)cc3)S2)cc1`: 10.7%; `O=C1NC(=Nc2ccc(O)cc2)S/C1=C\c1ccccc1`: -2.2%.
On to `O=C(CSc1nnc(-c2cccs2)n1-c1ccccc1)c1ccc(Cl)cc1`, for which the displacement came out at 0.9%.
On to `COc1ccc(C/C(O)=C(\C#N)c2nc3ccccc3[nH]2)cc1OC`, for which the displacement was -2.3%.
On to `COc1ccc(-c2nc(-c3cccnc3)no2)cc1OC`, for which the displacement was -11.3%.
For `N=c1sc(Cc2cccc3ccccc23)cn1CC(=O)c1ccccc1`, the displacement is -6.5%.
With `COc1ccc(CNC(=O)CN(c2ccc(C)cc2C)S(=O)(=O)c2ccc(C)cc2)cc1`, the displacement is -2.3%.
Turning to `COc1ccccc1NC(=O)C1=C(C)NC(=O)NC1c1ccccc1F` (stereo not given), the displacement was -12.7%.
As for `Cc1cccc(N2C(=O)C(=O)/C(=C(\O)c3ccccc3)C2c2cccc(F)c2)c1` (stereo not given), the displacement stood at 0.2%.
Next, `O=C(/C=C/c1ccccc1)NC(=S)Nc1cccc(-c2nc3ncccc3o2)c1`: 0.8%.
As for `Cc1ccc(/C=C/C(=O)Nc2ccccc2Br)o1`, the displacement is 14.2%.
As for `CCc1cc2c(=O)c(-c3nc4ccccc4n3C)c(C)oc2c(CN2CCOCC2)c1O`, the displacement was 5.7%.
For `COc1ccc(CCNS(=O)(=O)c2ccc3ccccc3c2)cc1OC`, the displacement came to 3.3%.
On to `CCOc1ccc(C(=O)Nc2ccc(NC(=O)c3ccccc3)cc2)cc1[N+](=O)[O-]`, for which the displacement was 12.7%.
The same measure for `N#C/C(=C\c1ccc(Cl)cc1Cl)C(=O)NCC1CCCO1` (stereo not given): -20.1%.
With `COC(=O)C1=C(C)N(c2cc(C)cc(C)c2)/C(=C/c2ccco2)C1=O`, the displacement is 99.6%.
For `COCCNC(=O)C(=O)Nc1cccc2ccccc12`, the displacement was found to be 15.5%.
Next, `COC(=O)c1cc(NC(=O)c2ccc(-c3cccc(Cl)c3C)o2)cc(C(=O)OC)c1`: 7.6%; `Cc1cccc(N2C(=O)C(=O)/C(=C(\O)c3ccccc3)C2c2ccccc2[N+](=O)[O-])c1` (stereo not given): 1.6%.
Regarding `COc1cc(C(=O)N2CCC(Cc3ccccc3)CC2)cc(OC)c1OC`, the displacement is -6.7%.
In the case of `Cc1ccc(-c2cc(C(=O)N/N=C/c3ccco3)[nH]n2)cc1`, the displacement was -8.1%.
Regarding `COc1ccc(CCC(=O)Nc2cc(Cl)ccc2OC)cc1`, the displacement is -1.8%.
Regarding `COc1ccccc1-c1coc2c(CN3CCOCC3)c(O)ccc2c1=O`, the displacement is -10.1%.
The same measure for `CC(C)OP(C)(=O)CN1CCCC1=O` (stereo not given): 16.8%; for `CC(=O)Oc1ccc(-c2cccc(C(=O)N3CCCCC3)c2)cc1`: 0.1%; for `Cc1c(N=Cc2ccc3c4c(cccc24)CC3)c(=O)n(-c2ccccc2)n1C`: 2.1%.
For `Cc1cc(/C=C2\NC(=O)NC2=O)c(C)n1-c1ccc(N(C)C)cc1`, the displacement stood at 3.4%.
For `Cc1ccc(S(=O)(=O)N(C)CCCC(=O)Nc2cccc(C)c2)cc1`, the displacement was determined as 7.5%.
The same measure for `CCOc1ccc(Nc2nc(O)c(C3=c4cc(Br)ccc4=NC3=O)s2)cc1`: -5.8%; for `O=C(N/N=C/c1ccco1)c1cc(C23CC4CC(CC(C4)C2)C3)[nH]n1`: -9.5%.
As for `CCc1ccc2oc(-c3cccc(NC(=O)c4ccccc4C)c3)nc2c1`, the displacement stood at 14%.
Turning to `CCOC(=O)C1=C(C)N(CCOC)C(=O)/C1=C\c1ccc(C)cc1`, the displacement was 44.1%.
Take `C=CCn1c(SCC(=O)NCCCN2CCOCC2)nc2sc3c(c2c1=O)CCCC3`: the displacement is 2.5%.
Turning to `Cc1ccc(/C=C2\C(=O)NC(=S)N(c3ccc(C)cc3)C2=O)cc1`, the displacement was 14.6%.
Next, `Cc1cc(C)c(NS(=O)(=O)c2cc([N+](=O)[O-])ccc2Cl)c(C)c1`: 18.6%; `O=C(Nc1nc2ccc(Cl)cc2s1)c1cccc(F)c1`: 5.1%.
With `CCC(C)c1ccc(NC(=O)c2ccc([N+](=O)[O-])cc2)cc1` (stereo not given), the displacement worked out at 11.6%.
Next, `COc1ccc(C2CC(C(F)(F)F)n3nc(C(=O)N4CCN(c5ccccc5)CC4)c(Cl)c3N2)cc1OC` (stereo not given): 0.5%; `Cc1ccccc1C(=O)N1CCN(c2nc3ccc([N+](=O)[O-])cc3s2)CC1`: 161%; `COc1ccc(NC(=O)c2cncc(Br)c2)c(OC)c1`: 13.7%.
For the compound `CCN(CC)c1ccc(N=Cc2c(C)[nH]c3ccccc23)cc1`, the displacement was -0.1%.
`CC(=O)Nc1cccc(C(=O)/C=C/c2ccc(/C=C/C(=O)c3cccc(NC(C)=O)c3)cc2)c1`: the displacement was 10.6%.
The same measure for `CC1=C(C)CC2C(=O)N(c3ccc(C)c([N+](=O)[O-])c3)C(=O)C2C1` (stereo not given): -8.7%.
As for `O=C1c2ccc(-c3nc4ccccc4c(=O)o3)cc2C(=O)N1c1ccc(-c2ccc([N+](=O)[O-])cc2)cc1`, the displacement is -1.3%.
With `COc1ccc(Cl)cc1NC(=O)c1cc2nc(-c3ccccc3)cc(C)n2n1`, the displacement was 7.1%.
`O=C(c1cc(Cl)ccc1Cl)N1CCOCC1`: the displacement is 8.2%.
With `Cc1ccc(C2(c3ccc(C)cc3)CC2C(=O)Nc2cc([N+](=O)[O-])ccc2C)cc1` (stereo not given), the displacement came out at 9.4%.
Next, `O=C(NCCCO)C(=O)NCc1ccccc1Cl`: 7.3%.
For the compound `O=C(O)CCCCCN1C(=O)C(=O)/C(=C(/O)c2ccccc2)C1c1cccc([N+](=O)[O-])c1` (stereo not given), the displacement came to 0%.
For `O=C(O)CCC(=O)Nc1ccc2nn(-c3ccccc3)nc2c1`, the displacement stood at 3.6%.

(Values after PubChem BioAssay AID1240 (Sanford-Burnham Center for Chemical Genomics, 2008).)
